This sample is rich in variants without activity.
B1: TPR 5TU (parent)
chain: GGAUCUUCUCGAUCUAACAAAAAAGACAAAUCUGCCACAAAGCUUGAGAGCAUCUUCGGAUGCAGAGGCGGCAGCCUUCGGUGGCGCGAUAGCGCCAACGUUCUCAACUAUGACACGCAAAACGCGUGCUCCGUUGAAUGGAGUUUAUCAUG

Variants of: B1
Assay: polymerase ribozyme fitness, log enrichment relative to wild type (log ratio); higher = more active; in vitro selection for triplet polymerase activity
Procedure, shortened: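 Genotype fitness is the logarithm of its enrichment divided by wild-type enrichment, using inverse-variance-weighted averages of replicates. That logarithm is base 2. Enrichment was measured by Illumina sequencing of input and output libraries from one triplicate in vitro selection round, with frozen incubation at −7 °C, on PCR-built, transcribed mutant libraries of each subunit of a heterodimeric triplet polymerase ribozyme, retaining genotypes with ≥10 input reads and ≥1 read per output.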

| Variant | polymerase ribozyme fitness (log ratio) |
| --- | --- |
| GGAUCUUCUCGAUCUAACAAAAAAGACAAAUCUGACACAAAGCUUGAGAGCAUCUUCGGCUGCAGAGGCGGCAGCCUUCGGUGGCGCGAUAGCGCCAACGUGCUCAACUAUGACACGCAAAACGCGUGCUCCGUUGAAUGGAGUUUAUCAUG | ≤ -4.2 |
| GGAUCUUCUCGAUCUAACAAAAAAGACAAAUCUGACACAAAGCUUGAGAGCAUCUUCGGAUGCAGCGGCGGCAGCCUUGGGUGGCGUGAUAGCGCCAACGUUCUCACCUAUGACACGCAAAACGCGUGCUCCGUUCAAUGGAGUUUAUCAUG | ≤ -4.2 |
| GGAUCUUCUCGAUCUAACAAAAAAGACAAAUCUGACACAAAGCUUGAGUGCAUGUUCGGAUGCAGAGGCGGCAGCCUUCGGUGGCGCGAUAGCGUCAACGUUCUCAACUAUGACACGCAAAACGCGUGCUCCGUUGAAUGGAGUUUAUCAUG | ≤ -4.2 |
| GGAUCUUCUCGAUCUAACAAAAAAGACAAAUCUGACACAAAGCUUGAGAGCAUCUUAGGUUGCAGAGGCGGCAGCAUUUGGUGGCGCGCUAGCGCCAACGUUCUCAACUAUGACACGCAAAACGCGUGCUCCGUUGAAUGGAGUUUAUCAUG | ≤ -4.2 |
| GGAUCUUCUCGAUCUAACAAAAAAGACAAAUCUGACACAAAGCUUGAGAGCAUUUUCGGAUGCAGAGGCGGCAGCCUUCGGUGGCGCGAUGGCUCCAACGUUCUCAACUAUGACACGCAAAACGCGUGCUCCGUUGAAUGGAGUUUAUCAUG | ≤ -4.2 |
| GGAUCUUCUCGAUCUAACAAAAAAGACAAAUCUGACACAAAGCUUGAGAGCAUCUUCGGAUGCAGAGGCGGCAGCCUUCGGUGGCGCGAUAGCGCCAACGUUCUCAUUUAUGACACGCAAAACGCGUGCUCCGUUGAAUGGAGUUUAUCAUG | -3.61 |
| GGAUCUUCUCGAUCUAACAAAAAAGACAAAUCUGACACAAAGCUUGAGAGCAUCUUGGGAUGCAGAGGCGGCAGCCUUCGGUGGCGCAAUAGCGCCAACGUUCUCAACUAUGACACGCAAAACGCGUGCUCCGUUGAAUGGAGUUUAUCAUG | ≤ -4.2 |
| GGAUCUUCUCGAUCUAACAAAAAAGACAAAUCUGACACAAAGCUUGAGAGUAUCUUCGGAUGCAGAGGCGGCAGCCUUCGAUGGCUCGAUAGCGGCAACGUUCUCAACUAGGACACGCAAAACGCGUGCUCCGUUGAAUGGAGUUUAUCAUG | ≤ -4.2 |
| GGAUCUUCUCGAUCUAACAAAAAAGACAAAUCUGACACAAAGCUUGAGAGCAUUUACGGAUGCAGAGGCGGCAGCCUUCAGUUGCGCGAUAGCGCAAACGUUCUGAACUAUGACAGGCAAAACGCGUGCUCCGUUGAAUGGAGUUUAUCAUG | ≤ -4.2 |
| GGAUCUUCUCGAUCUAACAAAAAAGACAAAUCUGACAUAAAGCUUGAGAGCAUCUUCGGAUGCAGAGGCGGCAGCCUUCGGUGGCGCGAUAGUGCCAACGUUCUCAACUAUGACACGCAAAACGCGUGCUCCGUUAAAUGGAGUUUAUCAUG | ≤ -4.2 |
| GGAUCUUCUCGAUCUAACAAAAAAGACAAAUCUGACACAAAGCUUGAGAGCAUCUUUGGAUGCAGAGGCGGCAGCCUUCGGUGGUGCGAUAGCGCCAACGUUCUCAACUAUGACACGUAAAACGCGUACUCCGUUGAAUGGAGUUUAUCAUU | -3.96 |
| GGAUCUUCUCGAUCUAACAAAAAAGACAAAUCUGACACAAAGCUUGAGGGCAUCUUCGGAUGCAGAGGCGGCAGCCUUCGGUGGCGAGAUAGCGCCAACGUUAUCAACUAUGACACGCAAAACGCGUGCUCCGUUGAAUGGAGUUUAUCAUG | ≤ -4.2 |
| GGAUCUUCUCGAUCUAACAAAAAAGACAAAUCUGACACAAAGCUUGAGAGCGUCUUCGGAGGCAGAGGCGGCAGCCUUCGGUGACGCGAUAGCACCAACGUUCUCAACUAUGACACGCAGCACGCGUGCUCCGUUGGAUGGAGUUUAUCAUG | ≤ -4.2 |
| GGAUCUUCUCGAUCUAACAAAAAAGACAAAUCUGACACAAAGCUUGAGAGCAUCUUCGGCUGCAGAGGCGGCAGCCUUCGGUGGCGCGAUAGCGCCGACGUUCUCAACUAUGACACGCAAAACGCGUGCUCCGUUGAAUGGAGUGUAUCAUG | ≤ -4.2 |
| GGAUCUUCUCGAUCUAACAAAAAAGACAAAUCUGACACAAAGCUUGAGAGCAUUUUCGGAUGCAGAGGCGGCAGCCUUCGGCGGAGCGAUAGCGCCAACGUUCUCAACUAUGACACGCAAAACGCGUGCUCUGUUGAAUGGAGUUUAUCAUG | ≤ -4.2 |
| GGAUCUUCUCGAUCUAACAAAAAAGACAAAUCUGACACAAAGCUUGAGAGCAUCUUCGGAUGCAGAGGCGGCAGCCUUCGGUGGCGCGAUGGCGCCAACGUUCUUAACUAUGACACGCAAAACGCGUGCUCCGUUGAAUGGAGUUUAUCAUG | -4.17 |
| GGAUCUUCUCGAUCUAACAAAAAAGACAAAUCUGACACAAAGCUUGAGAGCAUCUUCGGUUGCAGAGGCGGCAGCCAUCGGACGCGCGAUAGCGCCUACGUUCUCAACUAUGACACGCAAAACGCAUGCUCCGUUGAAUGGAGUUUAUCAUG | -3.93 |
| GGAUCUUCUCGAUCUAACAAAAAAGACAAAUCUGAGACAAAGCUUGAGAGCAUCUUCGGAUGCACAGGCGGCAGCCUUCGGUGGCCCGAUAGCGCCAACGUUCUCAACUAUGACACGCAAAACGCGUGCUCCGUUGAAUGGAGGUUAUCAUG | ≤ -4.2 |
| GGAUCUUCUCGAUCUAACAAAAAAGACAAAUCUGACACAAAGCUUGAGAGCAUCUUCGGGUGCAGAGGCGGCAGCCUUCGGUGGCGUGAUAGCGCAAACGUUCUCAACUAUGACACGCAAAACGCGUGCUCCGUUAAAUGGAGUUAAUCAUG | -4.03 |

— the RNAGym collection of RNA variant scans (doi:10.1073/pnas.2313332121)
